Test results from patent US20190352411A1 (ALLIGATOR BIOSCIENCE, published 2019).

Key:
[1] = target: T1, recombinant human OX40 (R&D #1493-CD) (human, UniProt P43489 29-216, limits assumed); experiment: ELISA, coated OX40
T1 construct: Coated on ELISA plates
T1 sequence (looked up): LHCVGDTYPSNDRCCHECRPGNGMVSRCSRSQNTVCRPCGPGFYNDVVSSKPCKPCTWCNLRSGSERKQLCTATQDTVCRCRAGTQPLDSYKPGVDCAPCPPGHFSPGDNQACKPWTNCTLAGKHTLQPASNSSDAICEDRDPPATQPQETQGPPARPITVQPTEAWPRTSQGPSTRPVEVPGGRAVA
Method: (§1) Binding to TNFR superfamily members for which ELISA methods had already been established (CD40 and OX40) was evaluated to detect potential propensity to cross react to non-target proteins.
(§2) ELISA plates (Greiner #655074) were coated with 50 μl/well of recombinant human OX40 (R&D #1493-CD), CD40-Fc (Ancell #504-820) or CD137 (R&D #838-4B) diluted to a final concentration of 0.5 μg/ml in PBS for 1 h at 37° C. or overnight at 4° C. Plates were washed with PBS+0.05% TWEEN20 (PBST), followed by block with PBST+1% bovine serum albumin (BSA). Antibody samples were prepared as serial 1/10 dilutions from 10-0.01 μg/ml in PBST+1% BSA and incubated for 1 h in room temperature, followed by detection using a horse radish peroxidase-conjugated anti-human kappa light chain antibody (AbD Serotec # STAR127P) and developed using SuperSignal ELISA Pico Chemiluminescent substrate (Pierce ThermoScientific #37069).

[2] = target: T2, CD40-Fc (Ancell #504-820) (human, UniProt P25942 part only); experiment: ELISA, coated CD40-Fc
T2 construct: Coated on ELISA plates; not shown: Fc part of the commercial fusion protein; not described
T2 sequence (P25942 21-193 limits assumed): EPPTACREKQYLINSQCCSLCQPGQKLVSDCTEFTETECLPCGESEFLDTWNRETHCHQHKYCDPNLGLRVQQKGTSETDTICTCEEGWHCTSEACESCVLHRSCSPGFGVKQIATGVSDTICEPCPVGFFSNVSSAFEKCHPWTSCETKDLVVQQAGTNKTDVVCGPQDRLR
Method: as §1, §2

[3] = target: T3, human FcγRI (R&D Systems #1257-FC-050) (human, UniProt P12314 16-288); experiment: Octet (BLI), antibody captured on FAB2G tips, soluble FcγR as analyte, 1:1 model
T3 construct: Soluble analyte in the Octet assay
T3 sequence (P12314 16-288 limits assumed): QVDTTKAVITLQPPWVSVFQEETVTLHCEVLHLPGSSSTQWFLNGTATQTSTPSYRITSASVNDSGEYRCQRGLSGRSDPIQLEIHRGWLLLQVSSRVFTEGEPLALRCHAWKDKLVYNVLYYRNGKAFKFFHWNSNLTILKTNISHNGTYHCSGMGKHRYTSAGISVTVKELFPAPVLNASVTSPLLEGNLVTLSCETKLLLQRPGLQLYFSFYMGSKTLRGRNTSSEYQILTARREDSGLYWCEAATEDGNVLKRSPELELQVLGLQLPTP
Text: (§3) The processed data was fitted using a 1:1 Langmuir binding model with X² as a measurement of fitting accuracy.

[4] = target: T4, human FcγRIIa (R&D Systems #1330-CD-050) (human, UniProt P12318 36-218, limits assumed); experiment: as above
T4 construct: Soluble analyte in the Octet assay
T4 sequence (looked up): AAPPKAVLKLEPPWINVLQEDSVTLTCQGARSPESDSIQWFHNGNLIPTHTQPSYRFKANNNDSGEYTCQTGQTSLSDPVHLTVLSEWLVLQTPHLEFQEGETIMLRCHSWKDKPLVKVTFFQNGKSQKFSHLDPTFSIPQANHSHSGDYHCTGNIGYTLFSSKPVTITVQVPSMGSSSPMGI
Text: as §3

[5] = target: T5, human FcγRIIb (R&D Systems #1460-CD-050) (human, UniProt P31994 46-217, limits assumed); experiment: as above
T5 construct: Soluble analyte in the Octet assay
T5 sequence (looked up): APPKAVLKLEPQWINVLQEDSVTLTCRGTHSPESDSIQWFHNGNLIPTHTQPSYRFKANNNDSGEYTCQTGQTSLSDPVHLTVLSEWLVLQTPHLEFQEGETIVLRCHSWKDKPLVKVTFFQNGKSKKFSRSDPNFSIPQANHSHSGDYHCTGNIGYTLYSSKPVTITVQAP
Text: as §3

- Kd [3]: 2.11 nM
- Kd [4]: 1000 nM
- Kd [5]: 779 nM
B1: 2674/2675 (antibody, human IgG4 S228P, kappa)
heavy: EVQLLESGGGLVQPGGSLRLSCAASGFNFGYSYMSWVRQAPGKGLEWVSSIGSTSSHTYYADSVKGRFTISRDNSKNTLYLQMNSLRAEDTAVYYCARVYSSPGIDYWGQGTLVTVSSASTKGPSVFPLAPCSRSTSESTAALGCLVKDYFPEPVTVSWNSGALTSGVHTFPAVLQSSGLYSLSSVVTVPSSSLGTKTYTCNVDHKPSNTKVDKRV[human IgG4 Fc with S228P (EU numbers) not listed]
light: DIQMTQSPSSLSASVGDRVTITCRASQSIGSTLNWYQQKPGKAPKLLIYGASSLQSGVPSRFSGSGSGTDFTLTISSLQPEDFATYYCQQYYTWVPFTFGQGTKLEIKRTVAAPSVFIFPPSDEQLKSGTASVVCLLNNFYPREAKVQWKVDNALQSGNSQESVTEQDSKDSTYSLSSTLTLSKADYEKHKVYACEVTHQGLSSPVTKSFNRGEC
- binding result [1]: no binding (tested: 10 µg/ml highest concentration tested)
- binding result [2]: no binding (tested: 10 µg/ml highest concentration tested)
